Measured values: the RNAGym collection of RNA variant scans (doi:10.1093/nar/gkz1192)
The source gives no read counts; variants with many changes may rest on few reads.

B1: CPEB3 Ribozyme (parent)
chain: UAACAGGGGGCCACAGCAGAAGCGUUCACGUCGCAGCCCCUGUCAGAUUCUGGUGAAUCUGCGAAUUCUGCUGUAUAUCUC

Variants of: B1
Assay: self-cleavage, relative activity (ratio to wild type); higher = more cleavage; in vitro, sequencing
Method in brief: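 Relative activity was defined as the cleaved/total read fraction for a variant divided by the same fraction for the unmutated ribozyme. CPEB3 self-cleaving ribozyme libraries were made by rounds of error-prone PCR, barcoded, and transcribed in vitro with T7 RNA polymerase for 5 hours at 37°C, and cleavage ran through transcription plus a 15 min DNase I step before EDTA. Illumina sequencing of template-switched reverse transcripts gave the reads, and DNA sequencing mapped the barcodes. Averages come from three batches, using variants with at least 5 reads.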

Variant	self-cleavage
A5G C11G G24A U72C	0.09
A5G A20G C62U U66C	0.37
A5G A20G U25C U76C U80A	0.85
A5G A18G C38U U67C	0.07
A5G A20G C34U U72C	0.71
A5G A21G G53A U72A	0.25
A5G A20G U69A U74C A75G U78A	0.19
A5G A56G U67A	0.27
A5G C29U U51C U69C	0.22
A5G A18G C29G U51C U69C G70U	0.06
A5G C11A G46A A64U C71A	0.19
A5G A18U C40G U60C C62G U80C	0.08
A5G C32A U69A	0.3
A5G A45C U74C	0.64
A5G A18U A35G U51C U72A	0.21
A5G C17G A18G C40U U41A A57U U69C	0.06
A5G C37A U48C A64G	0.08
A5G A28C U67A	0.12
A5G A45U U54C	0.38
A5G C11A A21G U26A G46U G63U A64G	0.18
A5G A21G U25C A35G U54C	0.09

Variant	self-cleavage
A5G A35U A45G	0.34
A5G C23G A28G U41C A47U G52A U72C	0.08
A5G A28C A64U	0.35
A5G A20G C39G U72C U80C	0.05
A5G A20U U26A	0.35
A5G A57U U80C	0.61
A5G A45G C62G A64U	0.31
A5G A45U U66C U72A	0.57
A5G C68A U72A	0.18
A5G A21G U72C	0.67
A5G A21G U26C A35U U54C	0.55
A5G A56U U58C U69C	0.08
A5G A21G G33U A35U U60A A64C	0.08
A5G A35G A56U A65G	0.6
A5G A28U U54A A56G	0.18
A5G A18U G24A C40U U41C U51A U67C	0.07
A5G C29U A57G	0.32
A5G A35U A56U	0.22
A5G A35U A56C	0.33
A5G C34U A56G C59U	0.26
A5G A21G G30A U60A	0.08

Variant	self-cleavage
A5G A56U C68U	0.22
A5G A28G C40U U60C	0.05
A5G A35G A47G	1.21
A5G A18G A35U U80A	0.17
A5G G6C C39U A65U	0.04
A5G A47G U54C U58A	0.12
A5G A18U U43A U67G	0.07
A5G C12A C29U	0.45
A5G C34G U43C A45G U54C U74C	0.09
A5G A21G A45G A65G U67C U78A	0.11
A5G C12A A35U C37A A56G U78C	0.17
A5G A28G U31C U41C G42U A64G A65G	0.31
A5G A47G U48C	0.38
A5G A21G U48C	0.53
A5G A21G U41C	0.11
A5G A28G C34U U51A A56U U78C	0.08
A5G A28U A35G C40A A65G U80C	0.06
A5G C38G U67C U69A	0.11
A5G A47G A56G U69C	0.32
A5G C17U A28G G30A A45C	0.25
A5G A21U A56G U78A	0.39

Variant	self-cleavage
A5G A57G U67C U76A	0.19
A5G A21G A28G U49C	0
A5G A45C U80C	0.51
A5G A21G G33C U41A U43G U72A U78C	0.04
A5G C23U A64G	0.25
A5G A35U U43A	0.48
A5G C62U U80C	0.09
A5G A28G A47U U51C A64G U76A	0.04
A5G C11U G24A A45G C68A	0.17
A5G A28G G46A U60C U72A	0.07
A5G C14A A18G U43C	0.31
A5G A21G A45G C59A A64U	0.09
A5G C29U U41A G55U G61U	0.1
A5G A18G U25A A35U U78C	0.33
A5G A45G G70A	0.4
A5G A18U A28G U60C	0.12
A5G A28G A77U	0.2
A5G C11U U58C U72C	0.06
A5G A28G U49C U69C	0.1
A5G A18G U26C C29U A65G	0.07
